# Data taken from PubChem BioAssay AID504706 (National Center for Advancing Translational Sciences (NCATS), 2011).
# Among all 320,000 compounds or so, about 200 (0.062%) were called active. The inconclusive results got no clear call from the source; some entries with a clear call stand among them for comparison. Calls come from the whole dose curve; as a rule, active = well fitted activation curve with a large enough effect; inconclusive = small, poorly fitted or top-dose-only effect; inactive = no such curve, though single readings can be large or run the other way. No potency is given beside an inconclusive call; the fits are too rough.
# Experiment: qHTS assay for re-activators of p53 using a Luc reporter; note: nearly all actives have a fitted effect of over 45% in size
# Details: H1299 p53-A138V BP100-luciferase reporter, luminescence, 24 h; series mostly up to 92.2 µM
# Method in brief: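 H1299 (p53-null), stable ts p53-A138V + BP100-Luc; 1000 cells/well, Opti-MEM/10% FBS; cpd 4 pt, 1:5; 24 h, 37 deg C, 5% CO2; detection reagent 10 min RT; luminescence.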
# Potency is the fitted concentration of half-maximal effect; tags give direction and shape of the fitted curve.
row,SMILES,Potency
1,Cc1ccc(-c2nc3nc4ccccc4nc3n2Cc2ccco2)cc1,"inconclusive [activator, partial curve, poor fit]"
2,CCN(CC)CCCNC(=O)c1cc(-c2ccc(Cl)cc2)on1,"inconclusive [activator, single point]"
3,Cn1ccnc1C(=O)c1cc(=O)c2ccccc2o1,"inconclusive [activator, partial curve, poor fit]"
4,C=CCOc1ccc2cccc(/C=N/NC(=O)c3cc4cc([N+](=O)[O-])ccc4s3)c2c1,inactive
5,Cc1cccc(-n2ncc3c(N(C)Cc4ccccc4)ncnc32)c1,"inconclusive [activator, full curve, poor fit]"
6,Cc1ccc(Cn2ccc(NC(=O)c3cc(-c4cccc(Cl)c4)on3)n2)cc1,inactive
7,N#CCC(=O)N/N=C/c1cccc(Oc2ccccc2)c1,inactive
8,Brc1ccc(-c2csc(-c3ccncc3)n2)cc1,"inconclusive [activator, partial curve, poor fit]"
9,COc1ccc(OCc2cc(C(=O)N3CCCN(C(C)=O)CC3)no2)c(Cl)c1,"inconclusive [activator, partial curve, poor fit]"
10,CC1(C)CC(C(CCN(Cc2ccccc2)C(=O)c2ccco2)c2ccc(F)cc2)CCO1 (centres undefined),inactive
11,Cc1cccc(NC(=O)CCCCCN2C(=O)c3ccccc3C2=O)n1,inactive
12,COC(=O)CNC(=O)COC(=O)/C=C/c1ccccc1[N+](=O)[O-],inactive
13,CCC(C)Nc1nc(N)c([N+](=O)[O-])c(N2CCCCCC2)n1 (centres undefined),inactive
14,CCOc1ccccc1N1CCN(c2nc(N)c(C#N)c(CC#N)c2C#N)CC1,"inconclusive [activator, single point]"
15,CCCCCCOc1ccc(OC(=O)c2ccncc2)cc1,"inconclusive [activator, partial curve, poor fit]"
16,Cc1ccc(-c2cc(=O)c3ccccc3[nH]2)cc1,"inconclusive [activator, partial curve, poor fit]"
17,CC1CN(c2cc(-c3ccccc3)c3ccccc3n2)CC(C)O1 (centres undefined),inactive
18,O=C(Cn1nnc(-c2ccccc2)n1)N/N=C/c1ccc(-c2ccc(Cl)cc2)o1,"inconclusive [activator, partial curve, poor fit]"
19,C=CCn1c(SCc2csc(C)n2)nc2scc(-c3ccc(C)o3)c2c1=O,"inconclusive [activator, partial curve, poor fit]"
20,COc1ccc(C)cc1NC(=O)CO/N=C(\N)CC(=O)Nc1ccccc1OC,"inconclusive [activator, single point]"
21,Cc1ccc(-c2nc3cnccn3c2Nc2ccc3c(c2)OCO3)cc1,"inconclusive [activator, full curve, poor fit]"
22,COc1cc(-c2ccccc2)nc(N)n1,"inconclusive [activator, partial curve, poor fit]"
23,COc1cccc(C(=O)NC2CCCN(C3Cc4ccccc4C3)C2)c1OC (centres undefined),inactive

row,SMILES,Potency
1,Cn1cccc1C(=O)NC1CCCCCC1,active: 7.08 µM
2,COc1ccc(C(=O)Cc2cc3ccccc3oc2=O)cc1,"inconclusive [activator, partial curve, poor fit]"
3,COc1ccc(N2C(=O)CC(N3CCN(c4ccccc4F)CC3)C2=O)cc1 (centres undefined),"inconclusive [activator, single point]"
4,CCCc1nn(C)c(C(=O)Nc2ccc(C)c(C)c2)c1Cl,"inconclusive [activator, partial curve, poor fit]"
5,CC(=O)Nc1cccc(NC(=O)C2CC(=O)N(C3CCCCC3)C2)c1 (centres undefined),inactive
6,COc1cc(C)c(Br)cc1S(=O)(=O)NCc1ccncc1,inactive
7,COc1ccc(O)c(-c2cc(-c3cccs3)[nH]n2)c1,"inconclusive [activator, partial curve, poor fit]"
8,O=C(c1cc2cc(Cl)ccc2[nH]1)N1CCN(c2ccc(F)cc2)CC1,"inconclusive [activator, partial curve, poor fit]"
9,O=C(COC(=O)c1ccc(Cl)cc1O)Nc1cccnc1Cl,"inconclusive [activator, partial curve, poor fit]"
10,COCCn1c(C)cc(C(=O)COC(=O)c2cncc(Br)c2)c1C,"inconclusive [activator, full curve, poor fit]"
11,CN=c1scc(C)n1/N=C/c1ccc2c(c1)OCO2,"inconclusive [activator, full curve, poor fit]"
12,c1ccc2c(c1)OCC(c1nnc3sc(-c4ccc5c(c4)OCO5)nn13)O2 (centres undefined),"inconclusive [activator, partial curve, poor fit]"
13,CCOC(=O)c1c(C)oc2c1C(=O)c1ccccc1C2=O,inactive
14,CC(=O)Nc1ccc(N=Cc2ccc(OCc3ccccc3)cc2)cc1,"inconclusive [activator, full curve, poor fit]"
15,O=C(c1ccc(Cl)cc1)c1cnc(Nc2ccccc2Cl)s1,inactive
16,COc1ccc(/C=N\NC(=O)c2c(C)nc3ccc(Br)cn23)cc1,"inconclusive [activator, partial curve, poor fit]"
17,Cc1ccc(/C=C(\C#N)C(=O)NCC2CCCO2)o1 (centres undefined),"inconclusive [activator, partial curve, poor fit]"
18,CCN1/C(=C/C=C/C=C/C=C/c2sc3ccccc3[n+]2CC)Sc2ccccc21,"inconclusive [activator, single point]"
19,O=c1oc2cc(Br)ccc2n1CSC1=NCCS1,"inconclusive [activator, single point]"
20,Cc1cccc(-n2nc3c(c2NC(=O)c2ccc4c(c2)OCO4)CS(=O)(=O)C3)c1C,inactive
21,COc1ccc(C(=O)/C=C/c2ccc3c(c2)OCCO3)cc1,"inconclusive [activator, full curve]"
22,CCOC(=O)c1ccc(N/C=C/C(=O)C(C)(C)C)cc1,"inconclusive [activator, single point]"
23,O=C(Nc1nnc(SCc2ccc(F)cc2)s1)C1=COCCO1,"inconclusive [activator, partial curve, poor fit]"

row,SMILES,Potency
1,CCOc1ccccc1NC(=S)NCC1CCCO1 (centres undefined),inactive
2,CSc1nnc(-c2sc(-c3ccccc3)nc2C)n1C,inactive
3,Cc1ccnc(S(=O)(=O)Cc2ccc([N+](=O)[O-])cc2)n1,"inconclusive [activator, partial curve]"
4,O=C(COC(=O)CNC(=O)c1ccco1)Nc1ncc(Cl)cc1Cl,"inconclusive [activator, full curve, poor fit]"
5,Nc1c(C(=O)N2CCCCC2)sc2nc3c(cc12)CCCC3,"inconclusive [activator, full curve, poor fit]"
6,CCN1CC(O)=C(c2nc3ccccc3s2)C1=N,"inconclusive [activator, partial curve, poor fit]"
7,O=C1/C(=C/c2ccncc2)SC(=S)N1C1CCS(=O)(=O)C1 (centres undefined),inactive
8,COc1ccc2c(c1)Sc1ccccc1N2CCN(C)C,"inconclusive [activator, partial curve, poor fit]"
9,CC(=O)c1cccc(NC(=O)c2ccc(N(C)S(C)(=O)=O)cc2)c1,"inconclusive [activator, single point]"
10,COc1cccc(C(=O)OCC(=O)c2c[nH]c3ccccc23)c1OC,"inconclusive [activator, full curve, poor fit]"
11,O=C(NCCn1ccc2ccccc21)c1ccc2c(c1)OCO2,"inconclusive [activator, partial curve, poor fit]"
12,C=CCn1c(C)cc(C(=O)COC(=O)c2n[nH]c(=O)c3ccccc23)c1C,"inconclusive [activator, single point]"
13,CCOc1cccc2c1OC1(C)CC2NC(=O)N1c1cccc(C(=O)NCc2ccccn2)c1 (centres undefined),inactive
14,CCOC(=O)c1c(NC(=O)CSc2nnc(-c3c[nH]c4ccccc34)n2CC)sc2c1CCCC2,inactive
15,CC(=O)c1ccc(NC(=S)NCCc2ccccn2)cc1,"inconclusive [activator, partial curve, poor fit]"
16,C=CCn1cccc(C(=O)Nc2ccc(OC)cc2)c1=O,inactive
17,CN1CCN(c2ccccc2NC(=O)c2ccc(-c3ccccc3[N+](=O)[O-])o2)CC1,"inconclusive [activator, partial curve, poor fit]"
18,CSC1=NCCN1C(=O)c1ccc2c(c1)OCO2,"inconclusive [activator, single point]"
19,COc1ccc(-c2cnc3nc[nH]c(=O)c3n2)cc1,"inconclusive [activator, partial curve, poor fit]"
20,COc1ccccc1C(=O)Nc1nnc(-c2ccccc2)s1,"inconclusive [activator, single point]"
21,COc1ccc(-c2nnc(N(C)C(=O)c3ccno3)s2)cc1,"inconclusive [activator, partial curve, poor fit]"
22,O=c1c2c3c(sc2nc2n1CCCCC2)CCCC3,"inconclusive [activator, partial curve, poor fit]"
23,O=C(c1cc(-c2cccs2)nc2ccccc12)N1CCN(c2ccccc2)CC1,inactive
